Test results reported in PubChem BioAssay AID1452 (National Center for Advancing Translational Sciences (NCATS), 2008).
About 190 (0.13%) of roughly 150,000 compounds were called active. This list was built around the results that the source calls inconclusive (neither active nor inactive); the mix of calls is not that of the screen. Calls follow the shape of the dose curve; as a rule, active = well fitted inhibition curve with a large enough effect; inconclusive = small, poorly fitted or top-dose-only effect; inactive = flat fitted curve, though single readings scatter. Potencies of inconclusive entries are doubtful fits and often do not repeat.

These molecules were tested against Polyunsaturated fatty acid lipoxygenase ALOX12 (Homo sapiens) (UniProt P18054) (assay: qHTS Assay for Inhibitors of 12-hLO (12-human lipoxygenase)). Conditions: purified 12-hLO, xylenol orange hydroperoxide absorbance; series mostly up to 57.1 µM.
Excerpt: Assay Provider: Holman, T.R., University of California, Santa Cruz Screening Center PI: Austin, C.P. Screening Center: NIH Chemical Genomics Center [NCGC] Human lipoxygenase 12hLO is a member of the closely related lipoxygenase family of enzymes which catalyze the site-specific oxidation of arachidonic acid to various hormone precursor molecules and as such is a candidate for drug development in a variety of disease areas, such as cancer and inflammation. Inhibition of 12hLO activity was screened by utilizing arachidonic acid as a substrate. The extent of hydroperoxide product formation was measured by a secondary chromogenic reaction in which xylenol orange (XO, Sigma-Aldrich, cat. number 39,818-7) reacts with the ferric ions produced from the reaction between the hydroperoxide and ferrous ions. The Fe(III)-XO complex is characterized with red-shifted absorbance at 560 nm. A purified preparation of human 12hLO was supplied by Professor Ted Holman, University of California, Santa Cruz.
Assay Protocol: Buffer: 25 mM Hepes pH 7.0, 0.01% Triton X-100. Reagents/Controls: Buffer in columns 3 and 4 as negative control (no enzyme). Substrate solution: 40 uM arachidonic acid (Sigma-Aldrich, St. Louis, MO) final concentration dispensed throughout the plate. Enzyme: 150 nM 12hLO final concentration in columns 1, 2, 5-48. Column 1 is neutral (100% activity). Column 2 contained pin-transferred titration of NDGA (nordihidroguaiaretic acid, Sigma-Aldrich, N 5023, top concentration 20 mM in DMSO, then 1:3 dilution in duplicate). (Dilution factor: 23 nL into 4 uL.) Chromogenic detection reagent (divalent iron/xylenol orange, Fe-XO): 200 uM xylenol orange plus 300 uM ferrous ammonium sulfate prepared freshly in 50 mM sulfuric acid. Assay Steps: Three uL of enzyme were dispensed to 1536-well Greiner black clear bottom plates. Compounds and controls (23 nL) were transferred via Kalypsys PinTool. The plates were incubated for 15 min at room temperature, and then 1 uL of substrate solution was added to start the reaction. After room temperature incubation for 30 minutes, 4 uL of Fe-XO solution was added to each well and the plates were incubated for 30 min. The absorbance at 405 and 573 nm were measured using ViewLux (Perkin-Elmer) High-throughput CCD imager and absorbance protocol settings. The 573-to-405 absorbance ratio was used to compute reaction progress.
Also: nearly all actives have a fitted effect of over 55% in size.
Potency is read from the fitted curve at half-maximal effect; tags tell the direction and shape of the fitted curve.

UniProt P18054, sequence (P18054 whole entry, looked up): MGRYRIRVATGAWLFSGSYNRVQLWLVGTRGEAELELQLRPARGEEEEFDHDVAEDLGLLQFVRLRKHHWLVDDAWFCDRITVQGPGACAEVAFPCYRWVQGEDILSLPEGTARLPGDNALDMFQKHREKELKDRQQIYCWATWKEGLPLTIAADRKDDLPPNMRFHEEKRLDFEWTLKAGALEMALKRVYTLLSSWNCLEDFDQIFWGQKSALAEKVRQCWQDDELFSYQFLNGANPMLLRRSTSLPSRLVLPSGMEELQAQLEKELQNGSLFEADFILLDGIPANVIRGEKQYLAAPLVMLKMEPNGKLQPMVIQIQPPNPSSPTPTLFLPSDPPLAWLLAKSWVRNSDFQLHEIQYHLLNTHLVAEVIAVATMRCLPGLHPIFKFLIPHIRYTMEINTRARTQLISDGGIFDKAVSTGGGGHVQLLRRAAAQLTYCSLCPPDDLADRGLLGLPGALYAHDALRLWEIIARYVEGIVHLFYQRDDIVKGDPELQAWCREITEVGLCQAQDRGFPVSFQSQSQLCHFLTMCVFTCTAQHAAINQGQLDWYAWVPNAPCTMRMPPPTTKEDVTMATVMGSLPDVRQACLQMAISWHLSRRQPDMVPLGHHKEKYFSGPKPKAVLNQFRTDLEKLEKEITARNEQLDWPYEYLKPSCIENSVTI

SMILES	Potency
O=Cc1ccc(N2CCCC2)c(F)c1	inactive
COc1ccc(-c2nc(C3CCCCC3)no2)cc1OC	inactive
CC(=O)N1CCCc2cc(S(=O)(=O)N(C)Cc3ccccc3)ccc21	inactive
CC1CCN(CC(=O)Nc2sc3c(c2C#N)CCC3)CC1	inactive
O=C(CCCOc1ccc(Cl)cc1Cl)n1nnc2ccccc21	inactive
O=S(=O)(NCc1cn2ccsc2n1)c1cccs1	inactive
O=C1CC(Nc2ccc(N3CCOCC3)cc2)C(=O)N1Cc1ccccc1 (stereo not drawn)	inconclusive: 20 µM [inhibitor, partial curve]
C=CCNC(=S)N/N=C/c1ccc(-c2cc(Cl)ccc2Cl)o1	inactive
Cc1ccc2c(c1)N(CCC(=O)NC1CC1)C(=O)C(C)O2 (stereo not drawn)	inactive
C=C(C)C(=O)OC	inactive
CCCCNC(=O)c1cc2c(-c3ccc(Cl)cc3)nn(C)c2s1	inactive
CCOC(=O)c1ccc(Oc2cc(C)nc(SC)n2)cc1	inactive
CC1(C)c2ssc(=S)c2-c2ccccc2N1C(=O)c1ccco1	inconclusive: 22.4 µM [inhibitor, partial curve]
O=[N+]([O-])c1ccc(NC(=S)NCCc2ccc(Cl)cc2)cc1	inconclusive: 7.08 µM [inhibitor, partial curve]
Cc1ccc(SCCNC(=S)Nc2ccc(C)cc2C)cc1	inconclusive: 31.6 µM [inhibitor, single point]
CC1(C)CC2(CC(c3cccs3)c3cc(Cl)c(O)cc3O2)NC(=S)N1 (stereo not drawn)	inconclusive: 25.1 µM [inhibitor, partial curve]
O=c1cnn(-c2ccc(Cl)cc2Cl)c(-c2ccccc2)c1	inconclusive: 31.6 µM [inhibitor, single point]
O=c1c(O)c(-c2cc(O)c(O)c(O)c2)oc2cc(O)cc(O)c12	inconclusive: 14.1 µM [inhibitor, partial curve]
C/C(=N\NC(=S)NCc1ccccc1)c1ccc(Cl)cc1	inconclusive: 28.2 µM [inhibitor, single point]
O=c1cc(-c2ccccc2)oc2cc(O)c(O)cc12	inconclusive: 0.0079 µM [inhibitor, full curve]
O=C(NC(=S)NCc1ccccc1)c1ccc2c(c1)OCO2	inconclusive: 28.2 µM [inhibitor, partial curve]
CCC(C)c1ccc(NC(=S)NCc2cccs2)cc1 (stereo not drawn)	inconclusive: 25.1 µM [inhibitor, single point]
Cc1ccc(N2C(=O)C3C4C=CC(CNC(=S)Nc5ccc(Cl)cc5)(O4)C3C2=O)cc1 (stereo not drawn)	inconclusive: 25.1 µM [inhibitor, single point]
CC1=C/C(=C\c2ccc3c(c2)OCO3)C(=O)S1	inconclusive: 22.4 µM [inhibitor, partial curve]
CC1(C)CC(CC(=O)NNc2nc(-c3ccccc3)cs2)C(=O)O1 (stereo not drawn)	inactive
O=C(Cn1c(=O)n(Cc2ccco2)c(=O)c2c3c(sc21)CCCCC3)Nc1ccccc1	inconclusive: 15.8 µM [inhibitor, partial curve]

SMILES	Potency
CC1CN(Cc2ccccc2)c2ccccc2NC1=S (stereo not drawn)	inconclusive: 39.8 µM [inhibitor, single point]
CC(C)C/C(O)=C/c1nc2cc(Cl)ccc2oc1=O	inconclusive: 39.8 µM [inhibitor, single point]
Cc1ccc(OCC(=O)c2ccc3c(c2)CCCC3)cc1C	inactive
O=C(C1=C(O)C(=O)N(c2ncccn2)C1c1ccc(Cl)c(Cl)c1)c1ccco1 (stereo not drawn)	inconclusive: 17.8 µM [inhibitor, partial curve]
CC(=C/c1ccccc1)/C=N/n1c(-c2ccco2)n[nH]c1=S	inconclusive: 39.8 µM [inhibitor, single point]
CCN(CCO)c1cc(Cl)nc(SC)n1	inactive
Cc1ccccc1NC(=S)NCc1ccc2[nH]c3c(c2c1)CCCC3	active: 14.1 µM
O=C(CSCC(=O)Nc1ccccc1)N/N=C/c1c(O)ccc2ccccc12	inconclusive: 0.0251 µM [inhibitor, full curve]
S=C(Nc1cccc(Cl)c1)Nc1ccccc1Oc1ccccc1	inconclusive: 22.4 µM [inhibitor, single point]
Cc1csc(NC(=O)c2cc(-c3ccco3)nc3ccccc23)n1	inconclusive: 28.2 µM [inhibitor, single point]
Cc1nc(N)sc1-c1csc(N(C)c2ccc(O)cc2)n1	inconclusive: 28.2 µM [inhibitor, single point]
CN(C1CCCCC1)S(=O)(=O)c1ccc(NC(=S)NC(=O)c2cccs2)cc1	inconclusive: 35.5 µM [inhibitor, single point]
COc1cc2c(cc1OC)-c1nnnn1C(C)(C)C2	inactive
CCOc1ccc(N2CSC3=C(C#N)C(c4ccco4)CC(=O)N3C2)cc1 (stereo not drawn)	inconclusive: 14.1 µM [inhibitor, partial curve]
COc1ccc(NC(=O)CSc2nc(O)cc(=O)n2-c2ccccc2OC)cc1	active: 7.08 µM
Cc1nn(-c2ccc(Cl)cc2)c(N)c1C(O)(CSc1nccn1C)C(F)(F)F (stereo not drawn)	inconclusive: 10 µM [inhibitor, partial curve]
O=C(NNc1ccc([N+](=O)[O-])cc1)C1CC1c1ccccc1 (stereo not drawn)	inactive
CCCn1c(CCC(=O)O)ccc1-c1ccc(OC)cc1	inconclusive: 14.1 µM [inhibitor, partial curve]
CCCCNS(=O)(=O)c1ccc2nc(SCC(=O)N3CC(C)OC(C)C3)[nH]c2c1 (stereo not drawn)	inactive
CCOC(=O)c1ccc(NC(=S)Nc2cccc(C)n2)cc1	inactive
O=C1OC(c2ccccc2)=C/C1=C\N1CCOCC1	inconclusive: 17.8 µM [inhibitor, single point]
Cc1cccc(Nc2n[nH]c(=S)s2)c1C	inconclusive: 39.8 µM [inhibitor, single point]
Cn1ccnc1SCC(=O)Nc1ccc2nc(SCC(=O)NC3CC3)sc2c1	inactive
Nc1scc2c(C(=O)N/N=C/c3ccc(Cl)cc3)nn(-c3ccccc3)c(=O)c12	inconclusive: 20 µM [inhibitor, partial curve]
CCN1C(=O)/C(=C/c2ccc(N3CCCC3)cc2)NC1=S	inactive
CCCCCOc1ccc(CSCCNC(=S)Nc2ccccc2)cc1	inconclusive: 28.2 µM [inhibitor, single point]

SMILES	Potency
COc1ccccc1-c1nnc2n1N=C(c1ccc(O)c(O)c1)CS2	inconclusive: 0.891 µM [inhibitor, full curve]
Cc1ccc(NC(=S)N/N=C/c2c(Cl)cccc2Cl)c(C)c1	inconclusive: 22.4 µM [inhibitor, single point]
CCCN1C(=O)/C(=C2\SC(N3CCCCC3)=NC2=O)c2ccccc21	inactive
CC1SC(C)C(=O)N(CC(=O)NCc2ccc(F)cc2)C1=O (stereo not drawn)	inactive
COc1cc(C(C#N)N2N=C(c3ccccc3)CC2c2ccccc2)ccc1O (stereo not drawn)	inconclusive: 5.62 µM [inhibitor, full curve]
CC1CCN(C(=O)CCCOc2ccc(Cl)cc2)CC1	inactive
CC1(C)c2ssc(=S)c2-c2ccccc2N1C(=O)CSC1=NCCS1	inconclusive: 17.8 µM [inhibitor, partial curve, poor fit]
C=CCNC(=S)N1CCN(c2cccc(C(F)(F)F)c2)CC1	inactive
COc1ccc(/C=N/NC(N)=S)cc1OC(=O)c1cccc2ccccc12	inconclusive: 28.2 µM [inhibitor, single point]
Fc1ccc(Nc2ncnc3sc4c(c23)CCC4)cc1F	inactive
COCCn1c(=O)c(-c2ccc(F)cc2)nc2cnc(Oc3cccc(Cl)c3)nc21	inactive
CCc1ccc(/C=C/C(=O)c2cc(Br)ccc(=O)c2O)cc1	inconclusive: 4.47 µM [inhibitor, partial curve]
CC1=NN(c2nc(-c3ccc(Cl)cc3)cs2)C(=O)C1	inconclusive: 39.8 µM [inhibitor, single point]
Cn1nnnc1SCCOc1ccc(C#N)cc1	inactive
Cc1ccc(/C([O-])=C(/C(=S)NCc2ccco2)[n+]2ccccc2)cc1	inactive
O=[N+]([O-])c1ccc(Oc2ccc(-c3cnc4ccccc4n3)cc2[N+](=O)[O-])cc1	inactive
COc1ccc(C2CC(c3cccs3)=Nc3ccccc3S2)cc1 (stereo not drawn)	inconclusive: 2.24 µM [inhibitor, full curve]
O=C(O)CC[C@@H](C(=O)O)N1C(=O)c2ccccc2C1=O	inconclusive: 4.47 µM [inhibitor, single point]
COc1ccc(-n2nnnc2SCC(=O)c2ccc(O)c(O)c2)cc1	inconclusive: 0.0447 µM [inhibitor, full curve, poor fit]
COc1ccc(-c2nnc(SCC(=O)N3CCCC(C)C3)o2)c(OC)c1 (stereo not drawn)	inactive
CC(=O)OC(C(=O)NC1CCCCC1)c1ccc(Cl)cc1 (stereo not drawn)	inactive
CCOC(=O)c1c(NC(C)=O)sc2c(O)cccc12	inconclusive: 39.8 µM [inhibitor, single point]
O=C(CSCc1ccco1)c1ccc(Cl)s1	inconclusive: 25.1 µM [inhibitor, single point]
CCCC(=O)NC(c1ccc2c(c1)OCO2)c1cc(Cl)c2cccnc2c1O (stereo not drawn)	inconclusive: 4.47 µM [inhibitor, single point]
Cc1cc(C)c2cc(C(c3nnnn3CC3CCCO3)N3CCN4CCCC4C3)c(=O)[nH]c2c1 (stereo not drawn)	inconclusive: 15.8 µM [inhibitor, partial curve]
CCCCC(=O)NNC(=S)NC(=O)c1cccc([N+](=O)[O-])c1	inconclusive: 17.8 µM [inhibitor, partial curve]
